Experimental data: PubChem BioAssay AID743279 (National Center for Advancing Translational Sciences (NCATS), 2014)
Screen size: about 360,000 compounds; about 17,000 (4.7%) were called active. Inconclusive means that the source gave no clear call. Such entries were picked first, then a sample of the others. Rule as the data show it: active = activity change below about -50%; inconclusive = mostly about -30% to -49%; inactive = weaker than that.

Test: qHTS for Inhibitors of Inflammasome Signaling: IL-1-beta AlphaLISA Primary Screen
Details: THP-1 LPS/ATP IL-1B secretion, 16 h, at 57.5 µM, stronger effect = lower value
Outline: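 Secreted IL-1B measured by AlphaLISA bead assay after 16 h compound exposure of THP-1 cells; compounds (final up to 57.5 uM) added 1 h before LPS (250 ng/mL) and ATP (1.25 mM) stimulation; lower signal means less secretion.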
% is scaled to controls: 0 for no effect and ±100 for the full control effect.

SMILES	activity change
CCc1ccc(N2C(=O)NC(=O)/C(=C\C=C\c3ccco3)C2=O)cc1	active: -96%
COC(=O)C1=C(c2ccc(OCc3ccccc3)cc2)C[C@@H]2CC[C@H]1N2C(=O)NCc1ccc([N+](=O)[O-])cc1	inconclusive: -33.5%
C[C@]12CCC3C(CC[C@H]4C[C@H](O)CC[C@]34C)C1[C@@H](O)C[C@@H]2O (stereo not given in full)	inactive: 3.54%
c1ccc(-c2cc(-c3ccccc3)[n+](-c3ccccc3)c(-c3ccccc3)c2)cc1	active: -102%
COc1cccc(OC)c1C(=O)Nc1nc(N)n(-c2ccccc2)n1	inactive: -21.4%
Cc1cccc(NP(=O)(Oc2ccccc2F)Oc2ccccc2F)c1	active: -99%
CCOP(=O)(OCC)C(O)c1ccccc1 (stereo not given)	inactive: 6.93%
COC(=O)C1=C(c2cccc(OC)c2OC)C[C@@H]2CC[C@H]1N2C(=O)NCC1CC1	inactive: 4.29%
COC(=O)C1=C(c2ccc(-c3ccccc3)c(F)c2)C[C@@H]2CC[C@H]1N2C(=O)NCc1ccc(F)cc1	inconclusive: -34.3%
Nc1c(C(=O)OC2CCCCC2)c2nc3ccccc3nc2n1CC1CCCO1 (stereo not given)	inconclusive: -40.6%
CCOC(=O)c1cc(CC)sc1/N=C/C1C(=O)NC(=S)NC1=O	inactive: 16%
Nc1c(C(=O)NCCc2ccccc2)c2nc3ccccc3nc2n1CCN1CCOCC1	active: -86.2%
CCOP(=O)(C#Cc1ccccc1)C(O)c1ccc(Br)cc1 (stereo not given)	inactive: -19.4%
COC(=O)C1=C(c2ccc3ccccc3c2)C[C@@H]2CC[C@H]1N2C(=O)NCc1ccc(C(F)(F)F)cc1	inconclusive: -31.9%
COc1ccccc1C=C1C(=O)NC(=S)NC1=O	inconclusive: -39.5%
COC(=O)C1=C(c2ccc(F)cc2OCc2ccccc2)C[C@@H]2CC[C@H]1N2C(=O)NCCOc1ccc(OC)cc1	inconclusive: -47.1%
N#CC1=C(N)Oc2c(c(=O)oc3ccccc23)C1c1ccc(OC(=O)N2CCOCC2)cc1 (stereo not given)	inactive: 1.28%
CC1Oc2cc3c(-c4c(O)cc(O)c5c(O)c6c(cc45)OC(C)C(C)C6=O)c(O)cc(O)c3c(O)c2C(=O)C1C (stereo not given)	inconclusive: -32.3%
O=c1nc(/C=C/c2ccc(Cl)cc2Cl)cc(C(F)(F)F)[nH]1	active: -87.4%
CCC(C)NC(=O)c1c(N)n(Cc2ccc3c(c2)OCO3)c2nc3ccccc3nc12 (stereo not given)	inconclusive: -41.1%
Cc1ccc(Cl)cc1N1CCN(CCN)CC1	inconclusive: -43.4%
CCC(C)n1c(O)c(C=Nc2cccc(C(F)(F)F)c2)c(=O)[nH]c1=S (stereo not given)	inactive: 4.72%

SMILES	activity change
CC(C)CN1Cc2cc(-c3cccc(F)c3)ccc2-n2nncc2C1	inactive: -6.3%
O=C1NC(=O)N(Cc2ccco2)C(=O)/C1=C/c1ccc(-c2cccc([N+](=O)[O-])c2)o1	inconclusive: -38.2%
N#CC(C#N)=Cc1ccc(-c2ccccc2F)o1	inconclusive: -32.3%
Ic1ccccc1CN[C@@H]1C2CCN(CC2)[C@@H]1C(c1ccccc1)c1ccccc1	active: -50.3%
c1ccc(NC2=NCCCS2)cc1	inactive: 0%
Cc1ccc(Cn2nnnc2CN2CCC(n3nnc4cc(C(F)(F)F)ccc43)CC2)cc1	inconclusive: -37.6%
CN1CCN(Cc2ccccc2Sc2ccccc2)CC1	active: -80%
CN(CC(=O)Nc1ccccc1-c1ccccc1)C1CCCCC1	inactive: -10.2%
C[C@H]1CCC/C=C/C2C[C@H](O)CC2[C@H](O)/C=C/C(=O)O1 (stereo not given in full)	active: -63.8%
CCCc1cc(=O)oc2cc(OCC(=O)N3CCN(Cc4ccc5c(c4)OCO5)CC3)ccc12	inconclusive: -47.4%
CCOC(=O)[C@]12Cc3cc4ccccc4cc3[C@H]1N(Cc1ccccc1)C(=O)c1ccccc12	active: -110%
CCCCCCCSc1cc(OC)c(CCNC)cc1OC	active: -78.8%
CC1CC(OC(=O)c2ccccc2)(c2ccccc2)C(C)CN1C (stereo not given)	inconclusive: -44.3%
CCCCCCn1c(O)c(C=NC2CCN(Cc3ccccc3)CC2)c(=O)[nH]c1=O	inactive: -27.6%
CCC1(C)CC(CCNCc2ccc(N(C)C)cc2)(c2ccc(F)cc2)CCO1 (stereo not given)	active: -72.1%
O=C(O)C1CC2(Cl)C(Cl)=C(Cl)C1(Cl)C2(Cl)Cl (stereo not given)	inactive: 6.58%
COc1cc2c(cc1OC)-c1c(OC)c(OC)c(OC)c3ccnc(c13)C2=O	inconclusive: -33.7%
Cc1[nH]c2ccccc2c1CCCNC1CCCCC1	inconclusive: -49.4%
O=C1/C(=C\c2cccnc2)N2CCC1CC2	inconclusive: -39.2%
Cc1cccc(C(=O)Nc2ccc3c(c2)CC2(C(=O)N(C)C(=O)N(C)C2=O)C2CCCN32)c1 (stereo not given)	inactive: 13.1%
O=c1[nH]c2ccccc2n1C1CCN(C(c2cccs2)c2nnnn2Cc2ccccc2)CC1 (stereo not given)	inconclusive: -42.3%
CSc1nnc(OC(=O)N(C)C)n1-c1ccc(Cl)cc1	inactive: 3.25%

SMILES	activity change
Cn1c(O)c(C=NCCCCCCCCCCC(=O)O)c(=O)n(C)c1=O	inactive: 22.2%
CCCCn1c(NC(=O)c2ccco2)c(C(=O)OCC)c2nc3ccccc3nc21	inconclusive: -35.5%
OC1CCCCC1N1CCC(c2ccccc2)CC1 (stereo not given)	inactive: -18.2%
COc1ccc2c(c1)/C(=C/c1cnc[nH]1)C(=O)N2	active: -111%
O=c1[nH]c(=S)n(C2CC2)c(O)c1C=Nc1cccc(C(F)(F)F)c1	inactive: -12%
Nc1c(C(=O)NCc2ccco2)c2nc3ccccc3nc2n1Cc1ccc(F)cc1	inconclusive: -39.9%
CNC(=O)Oc1ccc(-c2cn3cc(C)ccc3n2)cc1	inconclusive: -38.2%
COc1ccc(OC)c(N2C(=O)NC(=O)/C(=C\c3ccc([N+](=O)[O-])s3)C2=O)c1	inconclusive: -42.8%
O=C1NCN(c2ccccc2)C12CCN(C(c1ccccc1)c1nnnn1Cc1ccccc1)CC2 (stereo not given)	inactive: -13.3%
CC(=O)OC1N=C(c2ccccc2Cl)c2cc(Br)ccc2NC1=O (stereo not given)	active: -71.4%
O=C1NC(=O)C(=Cc2ccccc2OCCOc2ccc([N+](=O)[O-])cc2)C(=O)N1	inconclusive: -46.8%
Cc1cc(NC(=O)CCl)on1	active: -106%
CC1CCSP(=O)(Oc2ccccc2)O1 (stereo not given)	inactive: 8.7%
CCC(=O)N1N=C2C3CCN(CC3)C2C1c1ccc(C)cc1 (stereo not given)	inactive: 15%
CCOP(=O)(C#CC(C)(C)C)C(C)(O)c1ccccc1 (stereo not given)	inactive: 6.8%
COC(=O)C1=C(c2cccc(OCc3ccccc3)c2)C[C@@H]2CC[C@H]1N2C(=O)NCc1ccccc1OC	inconclusive: -38.5%
CCC1CN2CCc3cc(OC)c(OC)cc3C2CC1CC1NCCc2c1[nH]c1ccc(O)cc21 (stereo not given)	active: -101%
COc1cccc(C(c2nnnn2Cc2ccccc2)N2CCC3(CC2)C(=O)NCN3c2ccccc2)c1OC (stereo not given)	inconclusive: -44.1%
Cc1ccc(NC(=O)c2cc(-c3ccccc3)n(CCCN3CCOCC3)c2C)cc1	inconclusive: -32.2%
CCOC(=O)CNC(=O)CNC(=O)C(Cc1ccc(N(CCCl)CCCl)cc1)NC(C)=O (stereo not given)	inconclusive: -36.7%
O=c1c2ccccc2nc(/C=C/c2ccccc2F)n1-c1ccccc1O	active: -86.5%
COc1ccc(C=O)cc1O	inactive: 33.6%

SMILES	activity change
Cc1cccc(-n2c(/C=C/c3ccc([N+](=O)[O-])o3)nc3ccccc3c2=O)c1	active: -104%
C[C@@H]1CC[C@H]2[C@@H](C)C(=O)O[C@@H]3O[C@@]4(C)CC[C@@H]1[C@]32OO4	inactive: 9.88%
COc1cccc(N=Nc2c(O)[nH]c(=S)[nH]c2=O)c1	inconclusive: -31.3%
CC[C@@H](O)C[C@H]1CCC[C@@]2(C[C@@H]3OC(=O)/C=C/[C@@](C)(O)[C@@H](O)[C@H](C)[C@@H](O)[C@H](OC4CCC(N(C)C)C(C)O4)[C@@H](O)[C@](C)(O)CCCCC/C=C/[C@@H]4CC(C)(C)O[C@@]4(O)C[C@H](O2)[C@H]3C)O1 (stereo not given in full)	active: -56.2%
CC1=CC(=O)C2=C(C)C[C@H](O)[C@@H]3[C@H](OC(=O)[C@H]3C)[C@@H]12	active: -79.2%
O=C1NC(=O)N(Cc2ccc(F)cc2)C(=O)/C1=C/c1cccs1	active: -101%
COC(=O)C1=C(c2ccc(Cl)c(C(F)(F)F)c2)C[C@@H]2CC[C@H]1N2C(=O)NCCOc1ccccc1	active: -80.8%
Cc1oc(-c2ccccc2Cl)nc1CN1C(=O)CN=C(c2ccccc2)c2ccccc21	inconclusive: -49%
CC1CCC/C=C/C2CC(O)CC2C(O)/C=C/C(=O)O1 (stereo not given)	active: -55.7%
CCCCn1c(C)c(C(=O)OCC)c2c(CN3CCCC3)c(O)ccc21	active: -78.6%
Cc1nnc2ccc(-c3cccc(C(F)(F)F)c3)nn12	inactive: 0%
Cc1cccc(C)c1-n1nnnc1C(c1cc2ccccc2o1)N1CCC(n2c(=O)[nH]c3ccccc32)CC1 (stereo not given)	inactive: -23.4%
N#CC(C#N)=Cc1ccc(C=C(C#N)C#N)cc1	active: -82.8%
CCc1ccc(NC(=O)CN2CC(c3ccccc3)CC2=O)cc1 (stereo not given)	inconclusive: -38.3%
Nc1cc(Cl)cc(Cl)c1	inconclusive: -37.4%
COc1cccc(NP(=O)(Oc2ccccc2)Oc2ccccc2)c1	inconclusive: -41.9%
CC(=O)N1N=C(c2cccnc2)OC1c1ccccc1Cl (stereo not given)	inactive: 6.75%
Cc1cc(C=C2C(=O)NC(=S)NC2=O)c(C)n1-c1ccc2c(c1)OCO2	active: -101%
CCOC(=O)[C@]12Cc3c(cc(OC)c(OC)c3OC)[C@H]1N(C(C)C)C(=O)c1cc(OC)ccc12	active: -113%
